Experimental findings from paper PMC4336329 (PLoS ONE, 2015) are described below.

In all, about 310,000 compounds went through this assay and about 14,000 (4.5%) showed an effect of 50% or more. Effects have a minus sign here. Some of the results follow.
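Also: peak tail current of the secondary pulse compared with the same well before compound.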

The target of the experiment is human ether-à-go-go-related gene (hERG) potassium channel (human, UniProt Q12809). As to the kind of experiment: primary screen, population patch clamp on CHO cells stably expressing hERG.
Sequence of human ether-à-go-go-related gene (hERG) potassium channel (Q12809 whole entry, looked up): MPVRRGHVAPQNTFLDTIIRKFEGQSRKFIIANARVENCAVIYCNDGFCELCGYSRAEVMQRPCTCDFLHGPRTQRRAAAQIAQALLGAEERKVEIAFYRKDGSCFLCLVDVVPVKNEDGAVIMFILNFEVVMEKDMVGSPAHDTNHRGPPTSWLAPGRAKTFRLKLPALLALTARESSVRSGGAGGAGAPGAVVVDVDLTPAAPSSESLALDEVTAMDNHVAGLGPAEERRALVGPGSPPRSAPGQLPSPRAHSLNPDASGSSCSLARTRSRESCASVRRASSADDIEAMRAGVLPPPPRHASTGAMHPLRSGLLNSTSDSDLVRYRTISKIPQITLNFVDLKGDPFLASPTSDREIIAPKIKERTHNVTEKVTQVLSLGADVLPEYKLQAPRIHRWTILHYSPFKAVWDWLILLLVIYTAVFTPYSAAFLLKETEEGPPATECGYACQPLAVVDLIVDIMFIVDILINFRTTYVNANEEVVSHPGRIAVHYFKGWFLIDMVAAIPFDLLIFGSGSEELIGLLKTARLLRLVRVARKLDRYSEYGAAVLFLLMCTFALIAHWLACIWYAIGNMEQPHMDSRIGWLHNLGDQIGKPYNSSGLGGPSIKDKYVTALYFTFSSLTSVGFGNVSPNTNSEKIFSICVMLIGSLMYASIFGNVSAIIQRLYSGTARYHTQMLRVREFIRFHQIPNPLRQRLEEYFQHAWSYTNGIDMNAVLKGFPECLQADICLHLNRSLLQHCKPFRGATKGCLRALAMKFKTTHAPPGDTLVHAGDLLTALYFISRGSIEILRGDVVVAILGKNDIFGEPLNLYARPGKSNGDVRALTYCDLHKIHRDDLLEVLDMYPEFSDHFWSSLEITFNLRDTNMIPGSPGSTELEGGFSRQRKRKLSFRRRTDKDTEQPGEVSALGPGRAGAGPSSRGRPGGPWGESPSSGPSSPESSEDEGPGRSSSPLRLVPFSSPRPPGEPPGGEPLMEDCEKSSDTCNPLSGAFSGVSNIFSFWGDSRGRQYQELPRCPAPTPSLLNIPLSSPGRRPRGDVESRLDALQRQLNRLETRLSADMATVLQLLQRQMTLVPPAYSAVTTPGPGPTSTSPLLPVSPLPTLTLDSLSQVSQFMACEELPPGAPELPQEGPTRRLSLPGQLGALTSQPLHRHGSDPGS
Regarding `CCc1ccc(OCC(=O)OCC(=O)NCCNC(=O)COC(=O)COc2ccc(CC)cc2)cc1`, the “hERG current change (%, negative = inhibition) at 10uM” value came to 23.8%.
Turning to `O=C(Nc1ccc(Nc2ccncc2)cc1)c1ccc(Nc2ccnc3ccc([N+](=O)[O-])cc23)cc1[N+](=O)[O-]`, the “hERG current change (%, negative = inhibition) at 10uM” value was found to be 25.6%.
As for `COc1ccc(Cc2nnc(NC(=O)C3CCCO3)s2)cc1` (stereo not shown), the “hERG current change (%, negative = inhibition) at 10uM” value amounted to 3.44%.
`O=C(NOC(=O)c1ccccc1F)c1ccc(OC(F)F)cc1`: the “hERG current change (%, negative = inhibition) at 10uM” value worked out at 17.5%.
Consider `C=CCn1c(SCC(=O)Nc2sccc2C(N)=O)nc2ccc(Cl)cc2c1=O`, for which the “hERG current change (%, negative = inhibition) at 10uM” value was -1.48%.
Regarding `N#CCOc1ccc(C2=NO[C@@H]3[C@@H]4C[C@@H]([C@H]5C(=O)N(c6ccc7c(c6)OCO7)C(=O)[C@@H]45)[C@H]23)cc1`, the “hERG current change (%, negative = inhibition) at 10uM” value was -7.36%.
Next, `CCOC(=O)CC1C(=O)NCCN1C(=O)c1ccc(C)cc1` (stereo not shown): 14.9%; `CCSc1ncnc2c1sc1nc3c(cc12)COC(C)(C)C3`: -2.04%.
With `Cc1cc(C)nc(NC(=O)CN2C(=O)c3ccccc3S2(=O)=O)n1`, the “hERG current change (%, negative = inhibition) at 10uM” value was -2.4%.
The figure for `Cc1ccc2c(c1)N(CC(=O)N1CCCC1)C(=O)CO2` is 8.11%.
As for `COCCN(CCOC)C(=O)c1c[nH]c2ccc(S(=O)(=O)N(C)c3ccc(F)cc3)cc2c1=O`, the “hERG current change (%, negative = inhibition) at 10uM” value is -4.82%.
Next, `COc1ccc(CC(=O)Nc2nc3ccc(F)cc3s2)cc1S(=O)(=O)N1CCOCC1`: -19.4%.
`CCOc1cc2c(cc1OC)C(NC(=O)c1ccco1)CC2=O` (stereo not shown): the “hERG current change (%, negative = inhibition) at 10uM” value was 7.71%.
The figure for `CCn1nnc(NC(=O)CSc2ccc(Cl)cc2)n1` is -4.8%; for `O=C(Nc1ccc(N2CCN(C(=O)c3cccs3)CC2)cc1)c1cccc(F)c1` it is -62.6%.
In the case of `COc1ccc(S(=O)(=O)Nc2ccc(C(N)=O)cc2)cc1C(=O)N1CCCCCC1`, the “hERG current change (%, negative = inhibition) at 10uM” value was found to be 24.7%.
Next, `O=C(c1ccc(C(F)(F)F)cc1)C1CCCN(C(=O)Cn2cnnn2)C1` (stereo not shown): -36%; `CC(NC(=O)C12CC3(C)CC(C)(CC(C)(C3)C1)C2)C(=O)O` (stereo not shown): 7.52%; `COc1ccc(S(=O)(=O)NC2CCCC2)c(Cl)c1Cl`: 7.43%.
As to `C[C@@H]1CCC[C@H](C)N1NC(=O)c1ccc(Cl)c(S(N)(=O)=O)c1`, the “hERG current change (%, negative = inhibition) at 10uM” value is listed as 11.1%.
The figure for `COc1ccccc1NC(=O)CS(=O)(=O)c1cn(CC(=O)N2CCCC2)c2ccccc12` is -0.692%.
As for `O=C(Nc1ccc(F)c(F)c1)c1ccc(F)c(S(=O)(=O)N2CCOCC2)c1`, the “hERG current change (%, negative = inhibition) at 10uM” value is -36.9%.
For `O=c1[nH]cnc2scc(-c3ccc(Br)cc3)c12`, the “hERG current change (%, negative = inhibition) at 10uM” value was 9.89%.
The figure for `O=C(NCc1ccccc1F)c1cccs1` is -5.38%; for `COc1ccc(NC(=O)c2cc([N+](=O)[O-])ccc2N2CCCCC2)cc1` it is 4.86%; for `Cc1ccc(S(=O)(=O)NC(C(=O)Oc2ccc3ccc(=O)oc3c2)c2ccccc2)cc1` (stereo not shown) it is 6.89%.
With `CSc1nnc(Cc2cc(=O)[nH]c(=O)[nH]2)n1-c1cccc(C)c1`, the “hERG current change (%, negative = inhibition) at 10uM” value is reported as -6.81%.
For `COc1ccc(CNC(=O)c2cc3cc(OC)ccc3oc2=O)cc1`, the “hERG current change (%, negative = inhibition) at 10uM” value is 7.37%.
Take `O=S(=O)(NCc1csc(-c2cccnc2)n1)c1cccs1`: the “hERG current change (%, negative = inhibition) at 10uM” value is reported as -3.35%.
As to `C=Cn1nc(C)c2ccccc2c1=O`, the “hERG current change (%, negative = inhibition) at 10uM” value amounted to 5.68%.
For the molecule `COCCCNC(=S)Nc1ccccc1C`, the “hERG current change (%, negative = inhibition) at 10uM” value worked out at 22.1%.
The figure for `COc1ccc(CN(C)C(=O)CNC(=O)c2ccc(C)cc2)cc1` is 10.4%; for `COC(=O)c1cc(Cl)c(NC(=O)c2cc3ccccc3o2)cc1OC` it is 7.67%; for `O=C(NC(Nc1nc2ccccc2s1)(C(F)(F)F)C(F)(F)F)c1ccccc1` it is 17.5%.
With `Cn1c(=O)oc2cc(S(=O)(=O)N3CCCC(C(=O)NCC4COc5ccccc5O4)C3)ccc21` (stereo not shown), the “hERG current change (%, negative = inhibition) at 10uM” value is -20%.
For `O=C(NC1CCN(C(=S)Nc2ccccc2Cl)CC1)C1CCCCC1`, the “hERG current change (%, negative = inhibition) at 10uM” value is given as 14%.
Next, `COc1ccc(Br)cc1C(C[N+](=O)[O-])c1c(N)n(C)c(=O)n(C)c1=O` (stereo not shown): -1.32%; `CN1CCN(CC#CCOc2ccc(Cl)cc2)CC1.O=C(O)C(=O)O`: -0.0359%; `C/C(N)=C(/C#N)C(=O)COC(=O)CNS(=O)(=O)c1ccc2ccccc2c1`: 5.38%.
As for `CC(C)c1ccc(C2C(C#N)=C(N)N3C(=C2C#N)Sc2ccccc23)cc1` (stereo not shown), the “hERG current change (%, negative = inhibition) at 10uM” value stood at 10.9%.
Next, `CCC(=O)N/C(N)=N/c1nc(C)c2cc(C)c(C)cc2n1`: 10.6%; `Cc1cc(S(=O)(=O)N2CCOCC2)ccc1OCC(=O)N1CCCC1`: 22.8%.
The figure for `CC(Cc1n[nH]c(=S)n1N)c1ccccc1` (stereo not shown) is 19.8%.
